Experimental data published in PubChem BioAssay AID1347428 (National Center for Advancing Translational Sciences (NCATS), 2020).
About 290 (0.32%) of roughly 91,000 compounds were called active. The shares of active, inactive and inconclusive entries below differ from those in the screen. Calls follow the shape of the dose curve; as a rule, active = well fitted inhibition curve with a large enough effect; inconclusive = small, poorly fitted or top-dose-only effect; inactive = no such curve, though single readings can be large or run the other way. A potency beside an inconclusive call is a rough fit, not a confirmed value.

Molecular target: Single-stranded DNA cytosine deaminase (Homo sapiens) (UniProt Q9GZX7)
Experiment: Primary qHTS assay for inhibitors of Activation Induced Cytidine Deaminase (AID): AID signal; also: nearly all actives have a fitted effect of over 25% in size
Settings: AID deamination FRET fluorescence, UDG-coupled, 4 h; activity change, negative = inhibition: at 115 µM (top of the series)
% is scaled to controls: 0 for no effect and ±100 for the full control effect; potency is read from the fitted curve at half-maximal effect; tags tell the direction and shape of the fitted curve.

Sequence of UniProt Q9GZX7 (Q9GZX7 whole entry, looked up): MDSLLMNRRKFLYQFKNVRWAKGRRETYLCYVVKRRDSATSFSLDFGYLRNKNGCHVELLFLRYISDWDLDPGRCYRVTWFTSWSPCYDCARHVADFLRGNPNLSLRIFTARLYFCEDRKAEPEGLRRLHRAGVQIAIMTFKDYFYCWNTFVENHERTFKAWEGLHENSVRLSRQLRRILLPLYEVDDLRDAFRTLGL

SMILES	activity change, negative = inhibition	Potency
O=C(Oc1c2c3c(noc3c3ccccc13)C(Oc1ccc(F)cc1)=CC2=O)c1ccc(F)cc1	inactive: 18.7%	
CCc1cccc(NC(=O)c2cc(S(=O)(=O)N3CCCCCC3)cn2C)c1		inconclusive: 79.4 µM [inhibitor, single point]
COc1ccccc1N1CCN(C(=O)c2cc3c(s2)-c2ccccc2OC3)CC1		inconclusive: 22.4 µM [inhibitor, full curve, poor fit]
Cc1ccccc1CN1CCC(CNC(=O)c2cc3ccc4cccnc4c3[nH]2)CC1		inconclusive: 20 µM [inhibitor, full curve, poor fit]
COc1ccccc1CNC(=O)c1cc(S(=O)(=O)N2CCCCCC2)cn1C		inconclusive: 35.5 µM [inhibitor, full curve]
Cc1c(Cl)cccc1NC(=O)C(C)n1nc(C)c2c(C)n(-c3ccccc3)nc2c1=O (stereo not drawn)		inconclusive: 70.8 µM [inhibitor, single point]
COc1ccccc1Oc1nc2c(c(=O)n(C)c(=O)n2C)n1Cc1cccc(Br)c1		inconclusive: 50.1 µM [inhibitor, partial curve, poor fit]
CN(C)S(=O)(=O)N(CC(=O)NCCSCc1ccccc1Cl)c1ccccc1		inconclusive: 89.1 µM [inhibitor, partial curve, poor fit]
CCc1ccc(S(=O)(=O)c2nnn3c2nc(NCCc2ccccc2)c2sccc23)cc1		inconclusive: 50.1 µM [inhibitor, partial curve, poor fit]
Cn1nc(C(=O)NCc2ccccc2)c2c1-c1ccccc1SC2		inconclusive: 39.8 µM [inhibitor, partial curve]
Cc1ccc(-c2onc(C)c2C)cc1S(=O)(=O)N1CCCCC1		inconclusive: 56.2 µM [inhibitor, partial curve, poor fit]
CCOc1ccc(-c2oc3ccccc3c(=O)c2O)cc1OCC		inconclusive: 2.82 µM [inhibitor, full curve, poor fit]
Cc1ccc(-n2nnnc2SC(C(=O)N2CCCC2)c2ccccc2)cc1C (stereo not drawn)		inconclusive: 25.1 µM [inhibitor, partial curve, poor fit]
Cc1ccccc1CSc1cn(CCNC(=O)c2cccs2)c2ccccc12		inconclusive: 5.62 µM [inhibitor, full curve, poor fit]
COc1ccc(C(CNC(=O)COc2ccc(C)c(C)c2)N2CCCCC2)cc1 (stereo not drawn)		inconclusive: 56.2 µM [inhibitor, partial curve, poor fit]
CCCCCNc1c2c(nc3ccccc13)CC(C)(C)CC2=O	inactive: -21%	
Cc1ccc(Cl)cc1N1CCN(C(=O)c2cc(S(=O)(=O)N3CCC(C)CC3)cn2C)CC1		inconclusive: 56.2 µM [inhibitor, partial curve, poor fit]
CN(Cc1ccc(Br)cc1)C(=O)Cn1nnn(-c2cccs2)c1=O	inactive: -8.79%	
COCCN1C(=O)c2ccccc2C(C(=O)Nc2ccc(F)cc2)C12CCCC2 (stereo not drawn)	inactive: 0.827%	
CCOc1ccc(-n2c(Cc3ccccc3)nnc2SCc2nc(-c3ccccc3C)no2)cc1		inconclusive: 12.6 µM [inhibitor, full curve, poor fit]
Cc1ccc(C)c(NC(=O)C2CCCN(S(=O)(=O)c3c(C)noc3/C=C/N(C)C)C2)c1 (stereo not drawn)		inconclusive: 79.4 µM [inhibitor, partial curve]

SMILES	activity change, negative = inhibition	Potency
COc1ccc(Cl)cc1NC(=O)CCc1nc(-c2ccccc2F)no1		inconclusive: 39.8 µM [inhibitor, single point]
CC1CCCCN1Cc1oc(CO)cc(=O)c1O (stereo not drawn)	inactive: 0.355%	
O=C1CC(c2nc3ccccc3n2CCCCOc2ccccc2)CN1c1ccccc1Cl (stereo not drawn)		inconclusive: 35.5 µM [inhibitor, single point]
COc1ccccc1-c1nnc(SC(C(=O)N2CCCC2)c2ccccc2)n1C (stereo not drawn)	inactive: -2.22%	
O=C(/C=C/c1ccco1)OC(C(=O)c1ccccc1)C(=O)c1ccccc1	inactive: -3.34%	
O=C(CN1C(=O)S/C(=C\c2ccc(F)cc2)C1=O)Nc1ccc2oc(=O)ccc2c1	inactive: -3.06%	
COc1ccc2oc(=O)cc(CN3CCN(c4ccc(F)cc4)CC3)c2c1		inconclusive: 79.4 µM [inhibitor, single point]
CC(=O)c1c(C)[nH]c(-c2csc(NC3CCCC3)n2)c1C	inactive: 24.5%	
CC(C)C(=O)Nc1ccc(Sc2ccc(Br)cc2)cc1	inactive: -2.67%	
Cc1ccc(S(=O)(=O)Nc2ccccc2SCc2cc(=O)n3cc(Cl)ccc3n2)cc1	inactive: 2.6%	
COc1ccc(-c2cc3nc(C)c(CCC(=O)N4CCN(c5cccc(Cl)c5)CC4)c(C)n3n2)c(OC)c1		inconclusive: 28.2 µM [inhibitor, partial curve, poor fit]
Cc1cc(C)cc(Nc2cc(-c3ccccc3)nc(C)n2)c1		inconclusive: 25.1 µM [inhibitor, full curve, poor fit]
N#Cc1nc(COc2ccc(Cl)cc2)oc1NCc1ccco1	inactive: 6.37%	
Cc1nc2c(C(=O)NCCC(C)C)cnn2c(C)c1Cc1c(F)cccc1Cl		inconclusive: 50.1 µM [inhibitor, partial curve, poor fit]
COc1ccc(C2C(C(C)=O)=C(O)C(=O)N2c2ccc(OC)cc2)cc1 (stereo not drawn)	inactive: -1.15%	
CC(=O)N1CCCc2cc(S(=O)(=O)N3CCC(N(C)C(C)C)CC3)ccc21		inconclusive: 39.8 µM [inhibitor, single point]
COc1ccc(C(=O)Nc2cccc(-c3nc4cccnc4s3)c2C)c(OC)c1		inconclusive: 25.1 µM [inhibitor, full curve, poor fit]
N#CC1=C2SCN(C3CCCCC3)CN2C(=O)CC1c1ccc(F)cc1 (stereo not drawn)		inconclusive: 100 µM [inhibitor, single point]
Cc1ccc2nc(/C(C#N)=C/c3ccccc3OCc3ccc(Cl)cc3Cl)[nH]c2c1	inactive: 33.5%	
CCC1CN(C(=O)Nc2cc(OC)cc(OC)c2)c2ccccc2S1 (stereo not drawn)		inconclusive: 56.2 µM [inhibitor, partial curve, poor fit]
COc1ccc2nc(N3C(=O)C(O)=C(C(=O)c4ccco4)C3c3cccc(OC)c3OC)sc2c1 (stereo not drawn)		inconclusive: 50.1 µM [inhibitor, partial curve, poor fit]

SMILES	activity change, negative = inhibition	Potency
Cc1ccc(NC(=O)CNc2nc(Nc3ccccc3)nc(Nc3ccccc3)n2)cc1C		inconclusive: 17.8 µM [inhibitor, partial curve, poor fit]
CCOc1ccc(-c2nc(C#N)c(NCc3ccccc3Cl)o2)cc1	inactive: 0.134%	
Cc1ccc(NCc2cc3ccccc3[nH]c2=O)cc1C	inactive: -2.9%	
Cc1ccc(C)c(OCC(O)Cn2nc(C)c3ccccc3c2=O)c1C (stereo not drawn)	inactive: -13.7%	
CCn1cc(S(=O)(=O)c2ccc(C)cc2C)c(=O)c2cc(F)c(N3CCCC3)cc21		active: 22.4 µM
CCCn1cc(S(=O)(=O)c2ccc(OC)cc2)c(=O)c2cc(F)c(N3CCCCCC3)cc21		inconclusive: 25.1 µM [inhibitor, full curve]
Cc1cc(C)cc(OCCSc2nc(-c3ccc(C(C)(C)C)cc3)nc3cc(=O)[nH]n23)c1		inconclusive: 22.4 µM [inhibitor, partial curve, poor fit]
COC(=O)c1c(NC(=O)COc2ccc(OC)cc2)sc2c1CCC(C)C2 (stereo not drawn)		inconclusive: 56.2 µM [inhibitor, partial curve, poor fit]
CCOc1ccccc1N1CC(c2nc3ccccc3n2CCCCOc2cc(C)ccc2C)CC1=O (stereo not drawn)	inactive: -2.24%	
CCN(CC)C(=O)c1sc2c(c1C)c(=O)n(CCc1ccccc1)c(=O)n2Cc1cccc(Cl)c1		inconclusive: 10 µM [inhibitor, full curve, poor fit]
CCCCOc1ccc(CN2C(=O)C(=O)c3cc(C)ccc32)cc1OC		inconclusive: 35.5 µM [inhibitor, partial curve, poor fit]
O=C(NCCc1ccccc1)c1ccc(CSc2nc3ccncc3n2Cc2cccc(F)c2)cc1		inconclusive: 35.5 µM [inhibitor, partial curve, poor fit]
COc1cc(C(=O)Nc2ccc(OCc3cc(=O)n4cccc(C)c4n3)cc2)cc(OC)c1OC		active: 22.4 µM
CCCc1nn(C)c2c(=O)[nH]c(-c3cc(S(=O)(=O)Nc4ccccc4C)ccc3OCC)nc12	inactive: -0.777%	
O=C(CN1CCN(CC(=O)Nc2ccccc2F)CC1)Nc1ccc(Cl)c(C(F)(F)F)c1		inconclusive: 79.4 µM [inhibitor, partial curve, poor fit]
CCCCn1cc(S(=O)(=O)c2ccccc2)c(=O)c2cc(F)c(N3CCC(C)CC3)cc21		inconclusive: 39.8 µM [inhibitor, full curve, poor fit]
CCOc1ccc(C(=O)Nc2ccc3oc(-c4cccc(C)c4)nc3c2)cc1[N+](=O)[O-]		inconclusive: 70.8 µM [inhibitor, partial curve]
COc1ccccc1CNC(=O)c1ccc2c(c1)N(Cc1ccc(C)cc1)CCS2		inconclusive: 31.6 µM [inhibitor, partial curve, poor fit]
CCCCOc1ccc(C(=O)NCCc2csc(-c3ccc(OC)cc3)n2)cc1		inconclusive: 35.5 µM [inhibitor, partial curve, poor fit]
CCC(C(=O)NCCc1cc(OC)ccc1OC)n1nc(C)c2sc3ccccc3c2c1=O (stereo not drawn)		inconclusive: 15.8 µM [inhibitor, partial curve, poor fit]
CCN(Cc1ccccc1)S(=O)(=O)c1ccc2[nH]c3c(c2c1)CCCCC3		inconclusive: 39.8 µM [inhibitor, single point]
